Measurements from US20250177546A1, “ROR1-TARGETED BINDING MOLECULE AND USE THEREOF” (SANYOU BIOPHARMACEUTICALS CO., LTD., priority 2022, published 2025).

Key:
[1] = tested on: A549 cells; assay: ADC tumor cell killing, MTS assay, A549; assay type: cell-based, human; conditions: 72 h, relative to control 99961.1-MMAE
[2] = tested on: NCI-H1944 cells; assay: ADC tumor cell killing, CCK8 assay, NCI-H1944; assay type: cell-based, human; conditions: CCK8, 72 h
[3] = tested on: A549 tumor; assay: ADC efficacy in mouse model bearing A549 tumor; assay type: in vivo; conditions: 10 mpk
[4] = tested on: MDA-MB-468 tumor; assay: ADC efficacy in mouse model bearing MDA-MB-468 tumor; assay type: in vivo
[5] = tested on: A549 tumor cells; assay: ADC internalization efficiency by FACS, A549; assay type: cell-based, human; conditions: relative to control ADC 99961.1-MMAE
[6] = tested on: Jeko-1 tumor; assay: ADC efficacy in mouse model bearing Jeko-1 tumor; assay type: in vivo

B1: B31-H3L3-MMAE (conjugate)
heavy: EVQLVESGGGLVQPGGSLRLSCAASGFTFSRYAMSWVRQAPGKGLEWVASISRGGSTYYADSVKGRFTISRDNSKNTLYLQMNSLRAEDTAVYYCASYFGNYDAMDYWGQGTTVTVSS[human IgG1 constant region not listed]
light: DIQMTQSPSSLSASVGDRVTITCRASQDINNYVSWFQQKPGKAPKSLIYRANRLVSGVPSRFSGSGSGTDFTFTISSLQPEDFATYYCLQFDEFPYTFGGGTKLEIKRTVAAPSVFIFPPSDEQLKSGTASVVCLLNNFYPREAKVQWKVDNALQSGNSQESVTEQDSKDSTYSLSSTLTLSKADYEKHKVYACEVTHQGLSSPVTKSFNRGEC
B1 was tested, and the “killing effect on A549 tumor cells” value [1] was “slightly superior to that of the control 99961.1-MMAE”, the EC50 [2] was 117 nM and the “anti-tumor effect relative to positive control ADC” value ([3]; BIW*3) was “superior to that of the positive control ADC”. For the same molecule, the “Tumor growth inhibition (TGI)” value ([3]; tail vein BIW*3, day 27) was 8.75%, the “Tumor growth inhibition (TGI)” value ([3]; tail vein BIW*3, day 31) was 32.35% and the “Tumor growth inhibition (TGI)” value ([3]; tail vein BIW*3, day 34) was 40.25%. The “Tumor growth inhibition (TGI)” value ([3]; tail vein BIW*3, day 38) was 49.82%, the “Tumor growth inhibition (TGI)” value ([3]; tail vein BIW*3, day 41) was 51.16% and the “Tumor growth inhibition (TGI)” value ([3]; tail vein BIW*3, day 45) was 47.39%. The “Tumor growth inhibition (TGI)” value ([3]; tail vein BIW*3, day 48) was 43.98%, the “tumor inhibition effect relative to 99961.1-MMAE” value ([4]; 5 mg/kg QW*3) was “superior” and the “mice achieving CR” value ([4]; 5 mg/kg QW*3, day 25 after administration) was 4/6. The “Tumor growth inhibition (TGI)” value ([4]; 5 mpk, QW*3, day 35) was 38.37%, the “Tumor growth inhibition (TGI)” value ([4]; 5 mpk, QW*3, day 38) was 52.31% and the “Tumor growth inhibition (TGI)” value ([4]; 5 mpk, QW*3, day 42) was 74.83%. For the same molecule, the “Tumor growth inhibition (TGI)” value ([4]; 5 mpk, QW*3, day 45) was 84.77%, the “Complete remission (CR (%))” value ([4]; 5 mpk, QW*3, day 49) was 2/6 and the “Tumor growth inhibition (TGI)” value ([4]; 5 mpk, QW*3, day 49) was 93.52%. The “Complete remission (CR (%))” value ([4]; 5 mpk, QW*3, day 51) was 4/6, the “Tumor growth inhibition (TGI)” value ([4]; 5 mpk, QW*3, day 51) was 96.83% and the “Complete remission (CR (%))” value ([4]; 5 mpk, QW*3, day 56) was 4/6. The “Tumor growth inhibition (TGI)” value ([4]; 5 mpk, QW*3, day 56) was 98.02%, the “Tumor growth inhibition relative to 99961.1-MMAE” value ([4]; 10 mpk QW*3) was “slightly higher” and the “time at which all mice achieve complete remission (CR)” value ([4]; 10 mpk QW*3) was “approximately 18 days after administration”. For the same molecule, the “Tumor growth inhibition (TGI)” value ([4]; 10 mpk, QW*3, day 35) was 46.53%, the “Tumor growth inhibition (TGI)” value ([4]; 10 mpk, QW*3, day 38) was 70.18% and the “Complete remission (CR (%))” value ([4]; 10 mpk, QW*3, day 42) was 1/6. The “Tumor growth inhibition (TGI)” value ([4]; 10 mpk, QW*3, day 42) was 91.94%, the “Complete remission (CR (%))” value ([4]; 10 mpk, QW*3, day 45) was 5/6 and the “Tumor growth inhibition (TGI)” value ([4]; 10 mpk, QW*3, day 45) was 99.44%. For the same molecule, the “Complete remission (CR (%))” value ([4]; 10 mpk, QW*3, day 49) was 6/6, the “Tumor growth inhibition (TGI)” value ([4]; 10 mpk, QW*3, day 49) was 100% and the “Complete remission (CR (%))” value ([4]; 10 mpk, QW*3, day 51) was 6/6. The “Tumor growth inhibition (TGI)” value ([4]; 10 mpk, QW*3, day 51) was 100%, the “Complete remission (CR (%))” value ([4]; 10 mpk, QW*3, day 56) was 6/6 and the “Tumor growth inhibition (TGI)” value ([4]; 10 mpk, QW*3, day 56) was 100%. For the same molecule, the “Tumor growth inhibition (TGI)” value ([4]; 10 mpk, Single dose, day 35) was 29.08%, the “Tumor growth inhibition (TGI)” value ([4]; 10 mpk, Single dose, day 38) was 50.62% and the “Tumor growth inhibition (TGI)” value ([4]; 10 mpk, Single dose, day 42) was 84.41%. The “Complete remission (CR (%))” value ([4]; 10 mpk, Single dose, day 45) was 1/3, the “Tumor growth inhibition (TGI)” value ([4]; 10 mpk, Single dose, day 45) was 94.13% and the “Complete remission (CR (%))” value ([4]; 10 mpk, Single dose, day 49) was 3/3. For the same molecule, the “Tumor growth inhibition (TGI)” value ([4]; 10 mpk, Single dose, day 49) was 100%, the “Complete remission (CR (%))” value ([4]; 10 mpk, Single dose, day 51) was 3/3 and the “Tumor growth inhibition (TGI)” value ([4]; 10 mpk, Single dose, day 51) was 100%. The “Complete remission (CR (%))” value ([4]; 10 mpk, Single dose, day 56) was 3/3, the “Tumor growth inhibition (TGI)” value ([4]; 10 mpk, Single dose, day 56) was 100% and the tumor recurrence ([4]; all dose groups of the ADC) was “not observed”. The “time at which all mice achieve CR” value ([4]; single dose 10 mg/kg) was ≤ 18 days post-administration, the “tumor inhibition effect relative to 99961.1-MMAE” value ([4]; single dose 10 mg/kg) was “superior tumor inhibition effect” and the “internalization rate in A549 cells” value [5] was “comparable to that of the control ADC 99961.1-MMA”. For the same molecule, the “Tumor growth inhibition (TGI)” value ([6]; 2.5(D15)/3.5(D29) mpk, Q2W*2, day 17) was 4.77%, the “Tumor growth inhibition (TGI)” value ([6]; 2.5(D15)/3.5(D29) mpk, Q2W*2, day 20) was 18.97% and the “Tumor growth inhibition (TGI)” value ([6]; 2.5(D15)/3.5(D29) mpk, Q2W*2, day 22) was 7.83%. The “Tumor growth inhibition (TGI)” value ([6]; 2.5(D15)/3.5(D29) mpk, Q2W*2, day 24) was 4.25%, the “Tumor growth inhibition (TGI)” value ([6]; 2.5(D15)/3.5(D29) mpk, Q2W*2, day 27) was 13.01% and the “Tumor growth inhibition (TGI)” value ([6]; 2.5(D15)/3.5(D29) mpk, Q2W*2, day 29) was 9.77%. For the same molecule, the “Tumor growth inhibition (TGI)” value ([6]; 2.5(D15)/3.5(D29) mpk, Q2W*2, day 31) was 11.05%, the “Tumor growth inhibition (TGI)” value ([6]; 2.5(D15)/3.5(D29) mpk, Q2W*2, day 34) was 24.86% and the “Tumor growth inhibition (TGI)” value ([6]; 2.5(D15)/3.5(D29) mpk, Q2W*2, day 36) was 36.94%. The “Tumor growth inhibition (TGI)” value ([6]; 2.5(D15)/3.5(D29) mpk, Q2W*2, day 38) was 42.42%, the “Tumor growth inhibition (TGI)” value ([6]; 2.5(D15)/3.5(D29) mpk, Q2W*2, day 41) was 34.96% and the “Tumor growth inhibition (TGI)” value ([6]; 2.5 mpk, QW*3, day 17) was 6.14%. The “Tumor growth inhibition (TGI)” value ([6]; 2.5 mpk, QW*3, day 20) was 13.78%, the “Tumor growth inhibition (TGI)” value ([6]; 2.5 mpk, QW*3, day 22) was 10.83% and the “Tumor growth inhibition (TGI)” value ([6]; 2.5 mpk, QW*3, day 24) was 20.13%. The “Tumor growth inhibition (TGI)” value ([6]; 2.5 mpk, QW*3, day 27) was 40.94%, the “Tumor growth inhibition (TGI)” value ([6]; 2.5 mpk, QW*3, day 29) was 47.48% and the “Tumor growth inhibition (TGI)” value ([6]; 2.5 mpk, QW*3, day 31) was 53.56%. The “Tumor growth inhibition (TGI)” value ([6]; 2.5 mpk, QW*3, day 34) was 58.44%, the “Tumor growth inhibition (TGI)” value ([6]; 2.5 mpk, QW*3, day 36) was 61.76% and the “Tumor growth inhibition (TGI)” value ([6]; 2.5 mpk, QW*3, day 38) was 64.21%. For the same molecule, the “Tumor growth inhibition (TGI)” value ([6]; 2.5 mpk, QW*3, day 41) was 60.47%, the tumor recurrence ([6]; 10 mpk QW*3, 23 days after administration) was “not observed” and the tumor recurrence ([6]; 10 mpk single dose, 23 days after administration) was “no tumor recurrence was observed”.
